# Laboratory results reported in the supplement of paper PMC8728848.
# This is one part of the list.
# What was measured:
# Experiment in all cases: glycan array binding signal (z-score within array); higher = stronger binding
# Conditions in all cases: glycan notation: IUPAC condensed, linker removed
# [1] = target: Neu5Ac(a2-6)GlcNAc(b1-4)GlcNAc(b1-4)GlcNAc
# How it was run: (§1)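 From the Consortium for Functional Glycomics database, 3228 arrays were curated, keeping only those whose protein sequence was available. Binding is given as a within-array Z-score averaged across arrays sharing a protein sequence and across linkers. Negative Z-scores can be read as non-binding.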
# Neu5Ac(a2-8)Neu5Ac = target: Neu5Ac(a2-8)Neu5Ac
# How it was run: as §1
# [2] = target: Neu5Ac(a2-8)Neu5Ac(a2-3)Gal(b1-3)GalNAc(b1-4)[Neu5Ac(a2-3)]Gal(b1-4)Glc
# How it was run: as §1
# [3] = target: Neu5Ac(a2-8)Neu5Ac(a2-3)Gal(b1-3)GalNAc(b1-4)[Neu5Ac(a2-8)Neu5Ac(a2-3)]Gal(b1-4)Glc
# How it was run: as §1
# [4] = target: Neu5Ac(a2-8)Neu5Ac(a2-3)Gal(b1-4)Glc
# How it was run: as §1
# [5] = target: Neu5Ac(a2-8)Neu5Ac(a2-3)Gal(b1-4)GlcNAc
# How it was run: as §1
# [6] = target: Neu5Ac(a2-8)Neu5Ac(a2-3)[Gal(b1-3)GalNAc(b1-4)]Gal(b1-4)Glc
# How it was run: as §1
# [7] = target: Neu5Ac(a2-8)Neu5Ac(a2-3)[GalNAc(b1-4)]Gal(b1-4)Glc
# How it was run: as §1
# [8] = target: Neu5Ac(a2-8)Neu5Ac(a2-8)Neu5Ac
# How it was run: as §1
# [9] = target: Neu5Ac(a2-8)Neu5Ac(a2-8)Neu5Ac(a2-3)Gal(b1-4)Glc
# How it was run: as §1
# [10] = target: Neu5Ac(a2-8)Neu5Ac(a2-8)Neu5Ac(a2-3)[Gal(b1-3)GalNAc(b1-4)]Gal(b1-4)Glc
# How it was run: as §1
# [11] = target: Neu5Ac(a2-8)Neu5Ac(a2-8)Neu5Ac(a2-3)[GalNAc(b1-4)]Gal(b1-4)Glc
# How it was run: as §1
# [12] = target: Neu5Ac(a2-8)Neu5Ac(a2-8)Neu5Ac(a2-8)Neu5Ac(a2-3)[GalNAc(b1-4)]Gal(b1-4)Glc
# How it was run: as §1
# [13] = target: Neu5Ac(a2-8)Neu5Gc(a2-3)Gal(b1-4)GlcNAc
# How it was run: as §1
# [14] = target: Neu5Ac(b2-6)Gal(b1-4)GlcNAc
# How it was run: as §1
# Neu5Ac(b2-6)GalNAc = target: Neu5Ac(b2-6)GalNAc
# How it was run: as §1
# [15] = target: Neu5Ac9Ac(a2-3)Gal(b1-3)GlcNAc
# How it was run: as §1
# [16] = target: Neu5Ac9Ac(a2-3)Gal(b1-4)GlcNAc
# How it was run: as §1
# [17] = target: Neu5Ac9Ac(a2-6)Gal(b1-4)GlcNAc
# How it was run: as §1
# [18] = target: Neu5Gc(a2-3)Gal(b1-3)GlcNAc
# How it was run: as §1
# [19] = target: Neu5Gc(a2-3)Gal(b1-3)[Fuc(a1-4)]GlcNAc
# How it was run: as §1
# Neu5Gc(a2-3)Gal(b1-4)Glc = target: Neu5Gc(a2-3)Gal(b1-4)Glc
# How it was run: as §1
# [20] = target: Neu5Gc(a2-3)Gal(b1-4)GlcNAc
# How it was run: as §1
# [21] = target: Neu5Gc(a2-3)Gal(b1-4)GlcNAc(b1-3)Gal(b1-4)GlcNAc(b1-2)Man(a1-3)[Neu5Gc(a2-3)Gal(b1-4)GlcNAc(b1-3)Gal(b1-4)GlcNAc(b1-2)Man(a1-6)]Man(b1-4)GlcNAc(b1-4)GlcNAc
# How it was run: as §1
# [22] = target: Neu5Gc(a2-3)Gal(b1-4)[Fuc(a1-3)]GlcNAc
# How it was run: as §1
# [23] = target: Neu5Gc(a2-6)Gal(b1-4)GlcNAc
# How it was run: as §1
# Neu5Gc(a2-6)GalNAc = target: Neu5Gc(a2-6)GalNAc
# How it was run: as §1
# [24] = target: Neu5Gc(a2-8)Neu5Ac(a2-3)Gal(b1-4)GlcNAc
# How it was run: as §1
# [25] = target: Neu5Gc(a2-8)Neu5Gc(a2-3)Gal(b1-4)GlcNAc
# How it was run: as §1
# [26] = target: Neu5Gc(a2-8)Neu5Gc(a2-3)Gal(b1-4)GlcNAc(b1-3)Gal(b1-4)GlcNAc
# How it was run: as §1
# [27] = target: Neu5Gc(a2-8)Neu5Gc(a2-6)Gal(b1-4)GlcNAc
# How it was run: as §1
# [28] = target: Neu5Gc(b2-6)Gal(b1-4)GlcNAc
# How it was run: as §1
binder,measurement,setting,value
rCnSL-A (Clitocybe nebularis) (protein) VNPNLPGPNDVFVGFRGTNNIVGAIYEKDGIKDTPLNNGADAEMGPGSYITDGLFTARIFASGSAGNNPGTTATVCKIYASGVQWRGAPKGYIPVAYFGNGPTAEQRRQTYLRTLGLPGTAIRFGNLNTNPGQGPTAPRQMVVPPGPLRSLLKASCFPAADTRLPQTLHYFEKRVDWNIITAADSQTWGH,glycan array binding signal (z-score),[1],-0.339
same,glycan array binding signal (z-score),Neu5Ac(a2-8)Neu5Ac,-0.23
same,glycan array binding signal (z-score),[2],-0.299
same,glycan array binding signal (z-score),[3],-0.192
same,glycan array binding signal (z-score),[4],-0.223
same,glycan array binding signal (z-score),[5],-0.345
same,glycan array binding signal (z-score),[6],-0.234
same,glycan array binding signal (z-score),[7],-0.246
same,glycan array binding signal (z-score),[8],-0.276
same,glycan array binding signal (z-score),[9],-0.228
same,glycan array binding signal (z-score),[10],0.094
same,glycan array binding signal (z-score),[11],-0.215
same,glycan array binding signal (z-score),[12],-0.231
same,glycan array binding signal (z-score),[13],-0.288
same,glycan array binding signal (z-score),[14],-0.228
same,glycan array binding signal (z-score),Neu5Ac(b2-6)GalNAc,-0.222
same,glycan array binding signal (z-score),[15],-0.199
same,glycan array binding signal (z-score),[16],0.394
same,glycan array binding signal (z-score),[17],-0.255
same,glycan array binding signal (z-score),[18],-0.273
same,glycan array binding signal (z-score),[19],-0.215
same,glycan array binding signal (z-score),Neu5Gc(a2-3)Gal(b1-4)Glc,-0.52
same,glycan array binding signal (z-score),[20],-0.235
same,glycan array binding signal (z-score),[21],-0.099
same,glycan array binding signal (z-score),[22],-0.271
same,glycan array binding signal (z-score),[23],-0.271
same,glycan array binding signal (z-score),Neu5Gc(a2-6)GalNAc,-0.262
same,glycan array binding signal (z-score),[24],-0.225
same,glycan array binding signal (z-score),[25],-0.254
same,glycan array binding signal (z-score),[26],-0.31
same,glycan array binding signal (z-score),[27],-0.26
same,glycan array binding signal (z-score),[28],-0.297
